Measured values published in PubChem BioAssay AID1645882 (National Center for Advancing Translational Sciences (NCATS), 2021).
Values joined by “and” are separate entries in the source; they are usually repeats but may differ in a detail not shown here. Equal entries are not always repeated. The campaign covered roughly 16,000 compounds. About 120 (0.75%) were called active. About 4% were inconclusive and are not listed. The call rests on the fitted dose curve; in most records, active means well fitted inhibition curve with a large enough effect; inconclusive means small, poorly fitted or top-dose-only effect; inactive means no such curve, though single readings can be large or run the other way. Some of the results follow. A structure can be active in one record and inactive in another.

These molecules were tested against Rap guanine nucleotide exchange factor 3 (Homo sapiens) (UniProt O95398) (assay: Validation qHTS for antagonist of cAMP-regulated guanine nucleotide exchange factor 3 (EPAC1)). Conditions: EPAC1 Rap1B-BODIPY-GDP exchange, fluorescence; series mostly up to 150 µM; activity change, negative = inhibition: at the top concentration.
UniProt O95398, sequence (O95398 whole entry, looked up): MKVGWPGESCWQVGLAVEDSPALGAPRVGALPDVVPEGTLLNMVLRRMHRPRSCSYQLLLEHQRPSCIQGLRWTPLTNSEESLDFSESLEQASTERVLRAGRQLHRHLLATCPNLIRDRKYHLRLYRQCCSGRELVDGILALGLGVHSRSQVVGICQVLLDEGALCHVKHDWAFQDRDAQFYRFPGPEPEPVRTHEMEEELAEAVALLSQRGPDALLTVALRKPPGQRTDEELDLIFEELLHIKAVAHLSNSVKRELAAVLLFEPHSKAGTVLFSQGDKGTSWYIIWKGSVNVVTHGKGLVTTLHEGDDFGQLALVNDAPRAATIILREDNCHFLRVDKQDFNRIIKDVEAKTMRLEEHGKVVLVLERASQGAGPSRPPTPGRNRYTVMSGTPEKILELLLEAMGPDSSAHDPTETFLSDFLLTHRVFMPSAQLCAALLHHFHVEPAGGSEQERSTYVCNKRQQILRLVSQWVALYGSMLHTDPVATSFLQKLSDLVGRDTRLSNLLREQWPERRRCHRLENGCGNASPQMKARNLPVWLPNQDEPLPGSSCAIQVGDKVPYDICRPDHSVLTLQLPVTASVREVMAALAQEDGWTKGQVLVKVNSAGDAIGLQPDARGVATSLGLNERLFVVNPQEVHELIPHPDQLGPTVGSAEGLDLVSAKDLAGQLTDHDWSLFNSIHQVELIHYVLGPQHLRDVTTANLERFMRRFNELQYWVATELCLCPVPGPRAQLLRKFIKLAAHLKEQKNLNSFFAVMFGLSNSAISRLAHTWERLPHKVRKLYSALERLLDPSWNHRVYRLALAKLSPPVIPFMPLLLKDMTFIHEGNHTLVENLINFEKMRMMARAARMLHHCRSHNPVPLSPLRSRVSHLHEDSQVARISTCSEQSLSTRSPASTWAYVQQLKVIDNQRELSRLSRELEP
Outline: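 Nucleotide exchange followed as fluorescence loss when BODIPY-GDP leaves Rap1B (480 nm excitation, 540 nm emission), read at 5 min intervals over 30 min. Reaction: 100 nM EPAC1, 250 nM RAP1B-BODIPY-GDP, 50 uM GDP; ATA and DMSO define normalization.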
Further: nearly all actives have a fitted effect of over 75% in size.
Potency means the concentration at half of the fitted maximal effect.
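Wherever activity change, negative = inhibition is given: plate controls were DMSO for no effect and ATA control for full effect.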

Compound	activity change, negative = inhibition	Potency
c1cn(-c2cc(-c3ccc4c(c3)OCO4)ncn2)cn1	inactive: -4.82%	
COc1ccc(-c2cc(=O)c3c(O)c(OC)c(O[C@@H]4OC(COC5OC(C)C(O)C(O)[C@@H]5O)C(O)C(O)C4O)cc3o2)cc1 (stereo partly specified)	inactive: 8.31%	
CCN1CCC[C@H]1CNC(=O)c1c(O)c(Cl)cc(Cl)c1OC	inactive	
COc1ccc(OC)c(-c2cc(Cl)c3c(c2)CC(CNC(=O)C(C)N2CCOCC2)O3)c1 (stereo unspecified)	inactive: 16.7%	
O=C(c1ccco1)N1CCC2(CC1)CCN(c1ccc(-c3ccccc3)cc1)CC2	inactive: 24.4%	
Cc1ccccc1CN1Cc2cccc3c2[C@H](C=CC3)CC1=O	inactive: 10.8%	
O=C(NCC1(N2CCOCC2)CCCC1)c1cnn(-c2nccc(-c3cccs3)n2)c1C1CC1	inactive: 18%	
Cn1c(=O)cnc2cnc(Oc3ccccc3)nc21	inactive: -0.0023%	
CCCCC[C@H](O)/C=C/[C@H]1[C@H](O)CC(=O)[C@@H]1CCCCCCC(=O)O	inactive	
CC(=O)Nc1ccc(C(=O)O)cc1	inactive: 0.746%	
CCC(=O)NCCC1CCc2ccc3c(c21)CCO3 (stereo unspecified)	inactive: 4.42%	
Oc1ccc(C2Oc3cc(O)cc(O)c3CC2O)cc1 (stereo unspecified)	inactive: 2.55%	
COc1cccc(Cn2c(=O)cnc3cncnc32)c1	inactive: -0.796%	
COc1ccccc1OC(=O)Oc1ccccc1OC	inactive: 2.96%	
O=C(O)c1cccnc1C(=O)O	inactive	
O=C1CCC(=O)N1CO	inactive: 7.5%	
CCCCN1CC[C@H]2C=CC[C@@H](C(=O)Nc3ccc(Cl)c(C(F)(F)F)c3)[C@H]2C1=O	inactive: -3.69%	
COc1cccc(Cn2c(=O)c(C)nc3cnc(N4CCOCC4)nc32)c1	inactive: -0.0576%	
Cc1cccc(CNc2ncnc3ccc(-c4ccccc4C#N)cc23)c1	inactive: 9.24%	
CC(=C(CCOC(=O)C(C)C)SSC(CCOC(=O)C(C)C)=C(C)N(C=O)Cc1cnc(C)nc1N)N(C=O)Cc1cnc(C)nc1N	inactive: -6.32%	
COc1cc(-c2ccc(C(F)(F)F)cn2)cc2c1OCCN(S(=O)(=O)C[C@]13CC[C@H](CC1=O)C3(C)C)C2	inactive: 4.08%	
O=C1OC2(c3ccccc31)c1cc(Br)c(O)c(Br)c1Oc1c2cc(Br)c(O)c1Br	inactive: -98.6%	
c1ccc2oc(C3=NCCN3)cc2c1	inactive: -5.72%	
COC(=O)c1ccccc1-c1cc(C)cc2c1OC(CNC(=O)c1cc(C)n(C)n1)C2 (stereo unspecified)	inactive: 7.09%	
CC/C(=C(\c1ccccc1)c1ccc(OCCN(C)C)cc1)c1ccccc1	inactive	
NCc1ccc(S(N)(=O)=O)cc1	inactive	

Compound	activity change, negative = inhibition	Potency
O=C1/C(=C\c2cccs2)CCC/C1=C\c1cccs1	inactive: 16.8%	
Cc1cc[n+](CC(=O)c2ccc(F)cc2)c2ccccc12	inactive: 18.6%	
COCCNc1ccnc(-c2c(C)noc2C)n1	inactive: 21.2%	
CSc1ncccc1C(=O)NCC1Cc2cc(F)cc(-c3cncnc3)c2O1 (stereo unspecified)	inactive: 3.34%	
COc1ccccc1CN1CCCC2(CCN(C(=O)c3cccc(F)c3)CC2)C1	inactive: 17.3%	
COc1ccc(-c2cn(Cc3ccc4c(c3)C(=O)c3ccccc3C4=O)nn2)cc1	inactive: -6.21%	
COCCn1c(=O)cnc2cnc(N3CCN(C)CC3)nc21	inactive: -6.2%	
CC(C)C[C@@H](CN=[N+]=[N-])N1CCN(CCc2ccccc2)CCC1=O	inactive: 8.21%	
COc1ccc(CN2CCOc3ccc(C(O)c4cccnc4)cc3C2)c(F)c1 (stereo unspecified)	inactive: -9.79%	
CN(C)Cc1ccccc1-c1nccc(Nc2ccc(F)cc2)n1	inactive: 0.154%	
COc1cc(=O)n2c(c1C(=O)NCc1ccco1)CCN(Cc1ccc(F)cc1Cl)CC2	inactive: -4.96%	
CC(C)(C)NCC(O)c1cc(O)cc(O)c1 (stereo unspecified)	inactive	
NS(=O)(=O)c1cc2c(cc1Cl)NC(CC1CCCC1)NS2(=O)=O (stereo unspecified)	inactive: 12.6% [at 75.8 µM]	
O=C(Nc1cc(C(=O)N2CCN(CCO)CC2)c2c(c1)ncn2C1CCCC1)c1ccccc1	inactive: 6.01%	
COc1ccc(NC(=O)N2CCCC3(CCN(C(=O)c4cnccn4)CC3)C2)cc1	inactive: 15.5%	
COc1ccc(Oc2ncc3nc(-c4cccs4)c(=O)n(Cc4cccs4)c3n2)cc1	inactive: 9.41%	
COC(=O)C1N[C@@H]([C@@H](NC(=O)COc2ccccc2)C(=O)NCc2ccccc2)SC1(C)C (stereo partly specified)	inactive: -3.25%	
CC(CN1c2ccccc2Sc2ccc(S(=O)(=O)N(C)C)cc21)N(C)C (stereo unspecified)	inactive: 17.9%	
Cc1nc(NCc2cnn(C)c2)sc1-c1ccn(-c2cccc(F)c2)n1	inactive: 8.69%	
CC[N+](CC)(CC)CCOc1cccc(OCC[N+](CC)(CC)CC)c1OCC[N+](CC)(CC)CC	inactive	
O=C(O)C(O)[C@@](O)(Cc1ccc(O)cc1)C(=O)O (stereo partly specified)	inactive: 5.32%	
CCC1CN(CCNC(=O)c2cc(C)nn2CC)Cc2cc(OC)ccc2O1 (stereo unspecified)	inactive: 2.62%	
C=C(c1ccc(C(=O)O)cc1)c1cc2c(cc1C)C(C)(C)CCC2(C)C	inactive: -4.79%	
O=C(c1cnccn1)N1CCC2(CCCN(c3ccc(-c4ccccc4)cc3)C2)CC1	inactive: 3.07%	
C#C[C@]1(O)CC[C@H]2[C@@H]3CCC4=C(CCC(=O)C4)[C@H]3CC[C@@]21C	inactive: 4.26% [at 75.8 µM]	
C[C@@H]1[C@H](c2ccccc2)OCCS(=O)(=O)N1Cc1ccc(F)cc1	inactive: -7.77%	

Compound	activity change, negative = inhibition	Potency
COC(=O)C(N)Cc1ccc(Cl)cc1 (stereo unspecified)	inactive: -9.17% [at 75.8 µM]	
CCC(C)c1ccc(O[C@@H]2O[C@H](CO)[C@@H](O)[C@H](O)[C@H]2NC(C)=O)cc1 (stereo partly specified)	inactive: 19.1%	
O=c1c(-c2ccc(F)cc2)nc2cncnc2n1-c1ccccc1	inactive: 8.81%	
N[C@H](C(=O)O)[C@H]1C[C@@H]1C(=O)O	inactive	
CCOC(=O)C1=C(C)NC(c2ccccc2)=C(C(=O)OCc2ccc([N+](=O)[O-])cc2)[C@@H]1C#Cc1ccccc1	inactive: 4.77%	
Cc1nc2cnc(Nc3ccccc3)nc2n(C[C@H]2CCCO2)c1=O	inactive: -10.3%	
Cc1ccc2occ(CN3CCOc4ccc(C(C)(O)COc5ccccc5)cc4C3)c(=O)c2c1 (stereo unspecified)	inactive: -22.2%	
C=C[C@@]1(C)CC(=O)[C@@]2(O)[C@@]3(C)[C@@H](O)CCC(C)(C)[C@@H]3[C@H](O)[C@H](OC(C)=O)[C@@]2(C)O1	inactive: -3.87%	
COc1ccc2[nH]cc(CCNc3ccnc(-c4c(C)noc4C)n3)c2c1	inactive: -28.2%	
OC(CN1CCCCC1)c1ccccc1 (stereo unspecified)	inactive: 17.4%	
COc1ccc2cccc(N3CCN(CCNC(=O)c4ccc(F)cc4)CC3)c2c1	inactive: 0.118%	
O=C1CCC[C@@H]2Cc3nc4ccccc4cc3[C@@H]3CCN1[C@H]23	inactive: -2.6%	
CC[N+]1(CC(=O)c2ccc(Cl)cc2)CCCCC1	inactive: 12.3%	
Cc1ncc2c(c1CNC(=O)c1ccccc1F)CCN(C(=O)c1csc(-c3cccs3)n1)C2	inactive: 10.5%	
O=C(OCCOCCO)c1ccccc1Nc1cccc(C(F)(F)F)c1	inactive: -8.99% [at 75.8 µM]	
COCCn1c(=O)c(-c2cc(F)cc(F)c2)nc2cnc(Oc3ccc(OC)cc3)nc21	inactive: 7.13%	
Cc1ncc2c(c1CNC(=O)c1ccc3c(c1)OCO3)CCN(C(=O)c1scc3c1CCCC3)C2	inactive: 15.5%	
c1ccc(-c2onc(-c3ccco3)c2-c2ccc3c(c2)OCO3)cc1	inactive: 8.27%	
CC1=C(C/C=C(\C)CCC[C@H](C)CCC[C@H](C)CCCC(C)C)C(=O)c2ccccc2C1=O	inactive: 6.86%	
O=C(O)c1cc2ccccc2c(Cc2c(O)c(C(=O)O)cc3ccccc23)c1O		active: 50.1 µM
CCC1OC(=O)C[C@@H](O)[C@H](C)[C@@H](O[C@@H]2O[C@H](C)C[C@H](N(C)C)[C@H]2O)[C@@H](CC=O)C[C@@H](C)C(=O)/C=C/[C@]2(C)OC2C1C (stereo partly specified)	inactive	
O=C1[C@H]2[C@H](C=CC[C@H]2C(=O)N2CCOCC2)CCN1Cc1ccccc1	inactive: 19.6%	
CN(C)c1ccc(-c2ccc3ncnc(NCc4ccccc4)c3c2)cc1	inactive: 22.3%	
CCNc1ncc2nc(-c3cccs3)c(=O)n(-c3ccccc3)c2n1	inactive: 35.7%	
COc1ccc2c(=O)c(-c3ccccc3)coc2c1	inactive: 9.41%	
CC(=O)NCCNc1ncnc2ccc(-c3ccccc3Cl)cc12	inactive: 19.1%	

Compound	activity change, negative = inhibition	Potency
O=C(NCCc1ccccn1)c1cnn(-c2ncc3c(n2)-c2ccccc2CC3)c1C1CC1	inactive: -4.96%	
COC(=O)[C@@H]1[C@H]2C[C@H]3c4[nH]c5ccccc5c4CCN3C[C@H]2CC[C@@H]1O	inactive: 19.6%	
COC(=O)CC1C(C)(C)C(OC(C)=O)[C@@]2(O)C=C3C4CC(=O)OC(c5ccoc5)[C@]4(C)CCC3[C@@]1(C)C2=O (stereo partly specified)	inactive: 16.7%	
CN=C(N)NC(=O)Nc1c(C)cccc1C	inactive: 8.5%	
CC(=O)c1ccc(-c2cc(F)cc3c2OC(CNC(=O)Cc2cn4ccsc4n2)C3)s1 (stereo unspecified)	inactive: 16.1%	
COc1ccc(Oc2ncc3nc(-c4ccc(Cl)cc4)c(=O)n(CCC#N)c3n2)cc1	inactive: 9.79%	
CC1=CC(=O)[C@@H]2C[C@H]1C2(C)C	inactive: 17.9%	
O=C(c1cccc(F)c1)N1CCC2(CCCN(c3cccc(-c4ccccc4)c3)C2)CC1	inactive: -4.45%	
CC(=O)Nc1cccc(O)c1	inactive: 225%	
Cc1cnc(C(=O)O)c[n+]1[O-]	inactive	
C[C@@]12CCC[C@H]1C1CC[C@H]3C[C@H](O)CC[C@]3(C)C1CC2 (stereo partly specified)	inactive: 34.3%	
O=C(Nc1ccccc1)[C@@H]1CC=C[C@@H]2CCN(Cc3ccccc3)C(=O)[C@@H]21	inactive: 13.4%	
COc1ccc2c(c1)C[C@]1(C)c3ccccc3C(=O)N(Cc3ccccc3)[C@H]21	inactive: -30%	
O=c1c(O)c(-c2ccc(O)c(O)c2)oc2cc(O)cc(O)c12		inactive and active: 79.4 µM
O=C1CCC[C@@H]2Cc3nc4ccc(O)cc4cc3[C@@H]3CCN1[C@H]23	inactive: 18.7%	
COc1cc(OC)c2c(=O)c(-c3ccccc3)c(C)oc2c1OC	inactive: 5.94%	
CC(CCC(=O)O)C1CCC2C3CC[C@H]4CC(O)CC[C@@]4(C)C3C=C[C@]12C (stereo partly specified)	inactive: -25.3%	
O=C(c1cnccn1)N1CCC[C@@]2(CCN(Cc3ccncc3)C2)C1	inactive: 9.04%	
COc1ccc(CN2CCN(C(c3ccc(F)cc3)c3ccc(F)cc3)CC2)c(OC)c1OC	inactive: -22.1%	
CC(C)Cc1ccc(C(C)C(=O)O)cc1 (stereo unspecified)	inactive	
CC(C)C[C@@H](CN=[N+]=[N-])N1CCN(CC(C)C)CCC1=O	inactive: 5.97%	
COc1cc2c(cc1OC)C(=O)N(C)CC2	inactive: 14.4%	
[Cl][In]([Cl])[Cl]	inactive	
